This is one part of the list. The protein was read in a cell extract, so binding may be indirect.
biological target: T1, FLI1 (endogenous, THP-1 nuclear extract) (UniProt Q01543); experiment: nuclear extract protein-binding microarray (nextPBM); settings: 20 mM HEPES pH 7.9, 100 mM NaCl, 1 mM DTT, 0.2 mg/mL BSA, 0.02% Triton X-100, 2% milk, 0.4 mg/mL salmon testes DNA; 1 h; temperature not stated; high values mean tight binding; double strand, one strand shown; sequences stand for … in GCCTAGCAC…GTGCTAGGTCTTGATTCGCTTGACGCTGCTG
T1 sequence: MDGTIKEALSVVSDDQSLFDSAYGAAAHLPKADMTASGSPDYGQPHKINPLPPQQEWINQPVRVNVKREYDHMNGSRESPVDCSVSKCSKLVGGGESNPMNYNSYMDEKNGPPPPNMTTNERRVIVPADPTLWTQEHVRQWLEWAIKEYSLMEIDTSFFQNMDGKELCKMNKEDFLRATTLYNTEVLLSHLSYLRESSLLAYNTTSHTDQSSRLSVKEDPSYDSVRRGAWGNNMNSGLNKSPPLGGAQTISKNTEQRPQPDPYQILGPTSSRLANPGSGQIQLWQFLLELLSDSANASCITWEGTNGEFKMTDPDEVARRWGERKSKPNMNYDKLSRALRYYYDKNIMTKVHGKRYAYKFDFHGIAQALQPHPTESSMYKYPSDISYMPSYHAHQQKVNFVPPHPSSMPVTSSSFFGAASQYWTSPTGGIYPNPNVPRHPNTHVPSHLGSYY

How did the binding signal turn out when TTTTTGAGGAAGTGATAAAA was run?
Its binding signal is 3.08 z-score.

With AGAAAGGGGAAGTGCTACAC as the sequence, how does the binding signal read?
Its binding signal is 3.26 z-score.

With GAAAACGGGAAGTCCCATAG as the sequence, how does the binding signal read?
Its binding signal is 3.56 z-score.

TGATAGAGGAAGTAGTAGCT was tested. Which binding signal did it give?
The binding signal was 2.72 z-score.

Which binding signal does the source give for AAAAGAGGGAAGTGAAAATT here?
The binding signal was 2.46 z-score.

GAAATGAGGAAGTCTAACCT was tested. Which binding signal did it give?
The binding signal was 3.28 z-score.

Which binding signal does the source give for GAAAACAGGAAGTCCCATCG here?
Its binding signal is 4.55 z-score.

GGAGACAGGAAGTGACTTGT was tested. Which binding signal did it give?
The binding signal was 5.39 z-score.

With AAAGTAAGGAAGTGATAAAG as the sequence, how does the binding signal read?
Its binding signal is 1.81 z-score.

How did the binding signal turn out when GGAAGGCAGAAGTACTGTGA was run?
Its binding signal is 0.346 z-score.

With GCAGGGAGGAAGTGGGGAAG as the sequence, how does the binding signal read?
The binding signal was 2.87 z-score.

With GAAGAGAGGAAGTCAAATTG as the sequence, how does the binding signal read?
The binding signal was 2.61 z-score.

AAAAACAGGAACTGTCTTTC was tested. Which binding signal did it give?
The binding signal was 2.64 z-score.

GGTGGGAGGAAGTGTTTTCT was tested. Which binding signal did it give?
Its binding signal is 2.57 z-score.

With CAAAAAGGGAAGTGGACGCT as the sequence, how does the binding signal read?
The binding signal was 3.33 z-score.

TGAAGAAGGAAGTGAAATTA was tested. Which binding signal did it give?
The binding signal was 2.43 z-score.

For CGGGAGAGGAAGTGACCCAT, which binding signal is on record?
Its binding signal is 2.95 z-score.

For AAAAAGGGGAAGTCAGGGAG, which binding signal is on record?
Its binding signal is 3.74 z-score.

Which binding signal does the source give for TTTAAAGGGAAATACTGTGG here?
Its binding signal is 1.05 z-score.

With GGAAAAAGGAAGTGCTTGCT as the sequence, how does the binding signal read?
Its binding signal is 2.85 z-score.

How did the binding signal turn out when GCCAGGAGGAAGTGGAAATG was run?
Its binding signal is 3.17 z-score.

For GAAAACAGGAAGTCCGATAG, which binding signal is on record?
Its binding signal is 4.6 z-score.

With AATTAAAGGAAGTGATTCTA as the sequence, how does the binding signal read?
The binding signal was 2.54 z-score.

For AGAATAGGGAAGTGACTTAA, which binding signal is on record?
Its binding signal is 2.81 z-score.

How did the binding signal turn out when TAGATGAGGAAGTAGCTCAA was run?
Its binding signal is 2.41 z-score.

For GAAAGGAGGATGTACTGTGA, which binding signal is on record?
The binding signal was 1.03 z-score.

Which binding signal does the source give for AAAAACAGGAACTGGCTAGA here?
Its binding signal is 2.89 z-score.

TAGATGAGGAAGTGAGCAGA was tested. Which binding signal did it give?
The binding signal was 2.41 z-score.

How did the binding signal turn out when AGGATGAGGAACTGAAAATG was run?
Its binding signal is 1.44 z-score.

AAAAAAAGGAACTGATTCTT was tested. Which binding signal did it give?
Its binding signal is 1.66 z-score.

For ACAAAGAGGAAGTCCCCAAA, which binding signal is on record?
The binding signal was 3.12 z-score.

AGGATGAGGAACTGTTGATG was tested. Which binding signal did it give?
The binding signal was 1.53 z-score.

Which binding signal does the source give for CAAAAAGGGAAGTGAGGTAC here?
The binding signal was 2.62 z-score.

Which binding signal does the source give for TAATTGGGGAAGTGGTTTTG here?
The binding signal was 2.78 z-score.

With TGATGGAGGAAGTGGTAAGA as the sequence, how does the binding signal read?
The binding signal was 2.36 z-score.

GGTATGAGGAACTGGATTCC was tested. Which binding signal did it give?
The binding signal was 1.04 z-score.

How did the binding signal turn out when GAAAGGAGGAAGTGGGAAGG was run?
Its binding signal is 3.03 z-score.

Which binding signal does the source give for TGAAAGGGGAAGTGCTACAC here?
The binding signal was 3.38 z-score.

With TGAAAGAGGAAGTGAACCAT as the sequence, how does the binding signal read?
Its binding signal is 4.24 z-score.

Which binding signal does the source give for GCAATGAGGAACTGGAGTCT here?
The binding signal was 0.886 z-score.

Source: paper PMC6451091
